From the antibiotic and cytotoxicity screens of Wong et al. (2023) come the findings set out here.

The other results are listed elsewhere or left out.

The test system of this test is S. aureus RN4220. The test can be described thus: growth inhibition call (relative growth <= 0.2). Particulars: 50 µM.
Regarding `O[C@H]1CCCC[C@@H]1O`, the growth inhibition call is “inactive”.

On to `CN(C)CCCNC(=O)C[C@H]1CC[C@@H]2[C@H](COC[C@@H](O)CN2S(=O)(=O)c2ccc(Cl)cc2)O1`, for which the growth inhibition call is “inactive”.

As for `O=C(O)CN(CCN(CC(=O)O)CC(=O)O)CC(=O)O`, the growth inhibition call is “inactive”.

As for `COc1ccc(CN(C)C[C@@H]2OCCCC[C@H](C)Oc3ccc(NC(=O)Nc4ccc(C(F)(F)F)cc4)cc3C(=O)N([C@@H](C)CO)C[C@@H]2C)cc1`, the growth inhibition call is “inactive”.

For the molecule `Cc1ccc(S(=O)(=O)N(C)C[C@H]2Oc3ccc(NC(=O)CCCN(C)C)cc3C(=O)N([C@@H](C)CO)C[C@H]2C)cc1`, the growth inhibition call is “inactive”.

For the molecule `Cc1ccc(S(=O)(=O)Nc2ccc3c(c2)C(=O)N([C@@H](C)CO)C[C@@H](C)[C@@H](CN(C)S(C)(=O)=O)O3)cc1`, the growth inhibition call was “inactive”.

On to `O=C1C[C@]2(c3ccc([N+](=O)[O-])cc3)C(=O)N(Cc3ccccc3)c3cc(CO)ccc3[C@H]2N1CC12CC3CC(CC(C3)C1)C2`, for which the growth inhibition call was “inactive”.

For the molecule `Cc1noc(C)c1S(=O)(=O)Nc1ccc2c(c1)C(=O)N([C@@H](C)CO)C[C@@H](C)[C@H](CN(C)S(=O)(=O)c1ccc(Cl)cc1)O2`, the growth inhibition call is “inactive”.
